According to PubChem BioAssay AID488969 (Vanderbilt High Throughput Screening Facility, 2010):
Whole data set: some 110,000 compounds, median “z-score” near -0.1, cut for the highest 2% near 2. The list shows a part of the results.

Biological target: Metabotropic glutamate receptor 8 (Rattus norvegicus) (UniProt P70579)
Experiment: rat mGluR8 modulators via GIRK flux, primary screen, cell-based, thallium flux, HTS (AID 488969)
Settings: HEK293 rat mGluR8, GIRK (G protein-gated inwardly rectifying potassium channel) thallium flux, FluoZin2; at 10 µM; stronger effect = higher value; submaximal glutamate (EC20) added with thallium

Chain of UniProt P70579 (P70579 whole entry, looked up): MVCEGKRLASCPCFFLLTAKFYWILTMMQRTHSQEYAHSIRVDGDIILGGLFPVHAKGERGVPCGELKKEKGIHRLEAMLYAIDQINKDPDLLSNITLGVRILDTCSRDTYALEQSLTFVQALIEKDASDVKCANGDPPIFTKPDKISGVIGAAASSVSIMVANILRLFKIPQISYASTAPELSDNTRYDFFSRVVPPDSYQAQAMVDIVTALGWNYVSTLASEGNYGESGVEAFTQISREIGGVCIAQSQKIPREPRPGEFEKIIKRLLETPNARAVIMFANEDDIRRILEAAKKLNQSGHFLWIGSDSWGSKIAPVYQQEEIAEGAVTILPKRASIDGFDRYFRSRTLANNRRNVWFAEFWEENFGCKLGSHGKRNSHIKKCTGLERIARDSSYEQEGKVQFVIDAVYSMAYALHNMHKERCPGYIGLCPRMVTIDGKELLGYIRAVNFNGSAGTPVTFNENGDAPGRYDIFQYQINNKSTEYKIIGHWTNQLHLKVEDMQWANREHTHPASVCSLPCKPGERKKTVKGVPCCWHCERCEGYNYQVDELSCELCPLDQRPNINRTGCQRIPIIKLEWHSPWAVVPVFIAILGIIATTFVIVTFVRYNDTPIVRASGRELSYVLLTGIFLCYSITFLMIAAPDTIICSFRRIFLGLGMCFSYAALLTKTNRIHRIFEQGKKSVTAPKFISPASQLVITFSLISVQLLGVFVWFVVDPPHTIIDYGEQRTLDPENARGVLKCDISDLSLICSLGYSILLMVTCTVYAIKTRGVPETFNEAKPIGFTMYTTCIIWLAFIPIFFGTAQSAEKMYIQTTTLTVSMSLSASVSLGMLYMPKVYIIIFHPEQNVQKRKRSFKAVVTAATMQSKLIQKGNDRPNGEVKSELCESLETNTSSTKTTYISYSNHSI

SMILES | z-score
CCc1ccc(C2NC(C(=O)O)CS2)cc1 (stereo unspecified) | -0.258
Cc1ccc(-c2nc3ccccc3n2C)o1 | -0.291
CCN(Cc1cc2ccc(C)cc2[nH]c1=O)C(=O)c1cccnc1 | -0.212
C#Cc1ccc(C(=O)Nc2cc(C(N)=O)ccc2N2CCOCC2)cc1 | 0.0137
Cc1ccc(CNC(=O)COC(=O)[C@@H]2CC(O)CN2S(=O)(=O)c2ccc3c(c2)OCCO3)cc1 (stereo partly specified) | -0.146
O=C(COc1nc2ccccc2nc1N1CCOCC1)N1CCc2ccccc21 | 0.615
N#CCSc1nc2c(cc1C#N)CCCC2 | 0.113
Cc1ccc(S(=O)(=O)NCC2COc3ccccc3O2)cc1 (stereo unspecified) | -0.0372
CN(C)S(=O)(=O)c1ccc2nc(NC(=O)c3cccnc3)sc2c1 | 0.447
CC(C)(C)n1nc2c(c1NC(=O)Cc1ccc(F)cc1)CSC2 | -0.558
COc1cccc(C(=O)O/N=C(\N)c2ccc([N+](=O)[O-])cc2)c1OC | 0.268
CC1=C(C#N)C(NC(=O)c2cccc(Cl)c2)(C(F)(F)F)C(=O)N1 (stereo unspecified) | 1.42
COC(=O)C1=C(C)NC(=O)CC1c1ccccc1 (stereo unspecified) | -0.388
Cc1nnc(NC(=O)CCCOc2ccccc2)s1 | 0.567
COc1ccc(/C=C/C(=O)c2ccc(Cl)s2)cc1O | -0.156
O=C1CSC(c2ccncc2)N1Cc1ccco1 (stereo unspecified) | 0.22
Cc1cc(-c2ccccc2)nc(N(C)NC(=O)c2cccc(C(F)(F)F)c2)c1S(C)(=O)=O | 0.638
Cc1ccc(CNC(=O)C2(C)Oc3ccccc3NC2=O)cc1 (stereo unspecified) | 0.22
Cc1nn(-c2ccc(C(=O)O)cc2)c(C)c1Oc1ccccc1O | -0.318
CC(=O)N1CCN(c2ccc(S(=O)(=O)N3CCCCC3)cn2)CC1 | -0.0994
COc1cccc(C(=O)Nc2ccc(C(=O)O)cc2)c1 | -0.123
Cc1nnc(C)n1/N=C/c1cccnc1 | 0.457
C=CCn1c(N2C(=O)CC(Cc3ccccc3)C2=O)nc2ccccc21 (stereo unspecified) | -0.0227
O=C(CSc1nnc(-c2ccccc2)o1)N1CCc2ccccc2C1 | -0.646

SMILES | z-score
N#Cc1nc(COc2cccc(Cl)c2)oc1NCc1ccncc1 | 0.431
Clc1ccc(-c2csc(N3CCC(c4ccccc4)C3)n2)cc1 (stereo unspecified) | -0.095
CC(C)(C)N(NC(=O)Nc1ccccc1)C(=O)c1ccccc1 | -0.111
CC(=O)NC(Cc1ccccc1)C(=O)NC1CCN(C(=O)NC2CCCCC2)CC1 (stereo unspecified) | 0.136
O=C(NC1CCCc2ccccc21)C1CCN(S(=O)(=O)c2cccc(C(F)(F)F)c2)CC1 (stereo unspecified) | -0.154
O=C(CSc1nnc2scc(-c3ccccc3)n12)Nc1nsc(-c2ccccc2)n1 | -0.713
Cn1cc([N+](=O)[O-])c(C(=O)N/N=C/c2ccc([N+](=O)[O-])cc2)n1 | -0.282
COc1ccc(OC)c2sc(NC(=O)c3ccc(Cl)s3)nc12 | -0.107
CCC(Sc1nncn1C)C(=O)Nc1ccccc1OC (stereo unspecified) | 0.202
O=C(NCc1ccccn1)C1CC(=O)N(C2CCCC2)C1 (stereo unspecified) | -0.08
CCOC(=O)c1nnn(CC(=O)N2N=C(c3cc(C)ccc3C)CC2c2ccc(OC)cc2)c1C(=O)OCC (stereo unspecified) | -0.378
COc1ccccc1/C=N/NC(=O)CCSc1ccccc1 | 0.684
Cc1nc2ccccn2c1C(=O)N/N=C/c1ccc(CNC(=O)C(=O)Nc2ccccc2)o1 | 1.11
COc1ccc(C)cc1-n1nnnc1SC/C(O)=C(\C#N)c1nc2ccccc2[nH]1 | 0.451
Cc1cc(Br)ccc1NC(=O)CCSc1ccccc1 | 0.232
CCOC(=O)c1c(N=CN(C)C)c(C#N)c2n1CCCC2 | -0.0106
CCOc1ccc(NC(=O)CN2CCN(C3c4ccccc4-c4ccccc43)CC2)cc1 | -0.223
CCCCCN(C(=O)NC(=O)Nc1ccccc1C)S(C)(=O)=O | 0.212
Nc1nncn1C(=O)c1c(Cl)cccc1Cl | 0.0467
Cc1c(/C=N/NC(=O)c2ccccc2O)c2ccccn2c1C(=O)c1ccc(F)cc1 | -0.231
O=C(CCc1ccccc1)Nc1ccccc1F | -0.0735
CCN1CCN(CC(=O)Nc2ccc(Cl)c(Cl)c2)C(=O)C1=O | -0.0158
CCOc1ccc2[nH]c(S(=O)(=O)CC)nc2c1Cl | -0.23
O=C1NCCCCC1NC1CC(=O)N(c2ccccc2)C1=O (stereo unspecified) | -0.113

SMILES | z-score
CN(c1ccc(OCC(=O)N2CCC(C(N)=O)CC2)cc1)S(=O)(=O)c1cccs1 | -0.161
Cc1ccc(N(CC(=O)Nc2cc(Cl)ccc2Oc2ccccc2)S(C)(=O)=O)c(C)c1 | -0.131
COCC(=O)NCCNc1nc2ccc(C)cc2cc1C | -0.179
O=C(CCN1C(=O)c2ccccc2C1=O)Nc1cccc(S(=O)(=O)N2CCCCC2)c1 | -0.322
CCOC(=O)COc1nc(C)c(Br)c(OC)n1 | -0.464
COCCn1c(SCC(=O)c2c(-c3ccccc3)n(C)c3ccccc23)nnc1-c1ccncc1 | -0.708
COc1ccc(C/C(N)=N/OC(=O)C(c2ccccc2)c2ccccc2)cc1OC | -0.181
Cc1ccc(N2CC(C)Cn3c2nc2c3c(=O)n(CC(=O)OCc3ccccc3)c(=O)n2C)cc1C (stereo unspecified) | 0.137
CCC(C)n1c(/C=C/c2ccccc2)nc2ccccc21 (stereo unspecified) | -0.242
COc1ccc(NC(=O)CSc2ccc3c4c(cccc24)C(=O)c2ccccc2-3)cc1 | -0.0631
NC(=NC(=O)c1ccccc1)N1CCOCC1 | -0.137
COc1ccc(CC(=O)Nc2c3c(nn2-c2cccc(Cl)c2)CS(=O)C3)cc1 (stereo unspecified) | -1.01
CC(=O)Nc1cccc(OCC(O)Cn2cnc3ccccc32)c1 (stereo unspecified) | 0.023
CCOC(=O)c1nnn(CC(=O)Nc2cccc(OC)c2)c1C(=O)OCC | -0.172
Cc1ccc(NC(=O)CSC2=C(C#N)C(c3ccco3)CC(=O)N2)cc1 (stereo unspecified) | -0.0289
CC(NC(=S)Nc1c(Cl)cccc1OC(F)F)C(C)(C)C (stereo unspecified) | -0.253
O=C(NC(CO)Cc1ccc([N+](=O)[O-])cc1)C(Cl)Cl (stereo unspecified) | -0.606
Nc1nonc1-c1noc(CCCN2C(=O)c3ccccc3C2=O)n1 | 0.166
COc1ccccc1NS(=O)(=O)CC12CCC(CC1=O)C2(C)C (stereo unspecified) | 0.651
COc1ccc(C(=O)/C=C/c2ccc(OC(=O)c3cc(OC)c(OC)c(OC)c3)cc2)cc1 | -2.1
CCn1c(SCC(=O)N2CCc3ccccc32)nnc1-c1c[nH]c2ccccc12 | 0.361
O=C(CN(Cc1ccccc1)C1=NCCS1)c1ccc(Cl)cc1 | 0.804
O=C(NCc1ccccn1)c1ccc(CNS(=O)(=O)c2ccc(F)cc2)cc1 | -0.111
